# The campaign covered roughly 410,000 compounds. About 5,000 (1.2%) were called active. Inconclusive means that the source gave no clear call. Such entries were picked first, then a sample of the others. Calls come from the whole dose curve; as a rule, active = well fitted inhibition curve with a large enough effect; inconclusive = small, poorly fitted or top-dose-only effect; inactive = no such curve, though single readings can be large or run the other way. Potencies beside an inconclusive call are fits to weak or partial responses and may not hold up.
# Test: qHTS for Inhibitors of TGF-b; note: nearly all actives have a fitted effect of over 65% in size
# Details: HepG2 CAGA-GFP TGF-b/SMAD3 reporter, GFP fluorescence, 18 h, TGF-beta stimulated, 500 pg/mL final; series mostly up to 46.1 µM; activity, negative = inhibition: at the top concentration
# Summary of the method: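 GFP signal (ex488/em500-530) from TGF-beta-stimulated HEPG2 CAGA-GFP cells, 500 pg/mL final, 18 h at 37 degrees C in DMEM plus 1% FBS, normalized to unstimulated and DMSO-stimulated controls.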
# % is set by controls: 0 for no effect and ±100 for the full control effect; potency is the fitted concentration of half-maximal effect; tags give direction and shape of the fitted curve.
Structure (SMILES),Potency,"activity, negative = inhibition"
CC1(C(=O)Nc2cnc3ccccc3c2)CCN1Cc1ccc(OC(F)(F)F)cc1 (stereo not drawn),"inconclusive: 35.5 µM [inhibitor, single point]",
CC(C)CCNC(=O)C(c1ccc(O)cc1)N(Cc1cccs1)C(=O)C1COc2ccccc2O1 (stereo not drawn),"inconclusive: 25.1 µM [inhibitor, single point]",
O=C(c1cc(COc2ccc(F)c(F)c2)on1)N1CCN(C2CCCCC2)C(=O)C1,"inconclusive: 35.5 µM [inhibitor, single point]",
S=C(NCCc1ccccc1)N1CCc2ccccc2C1,"inconclusive: 10 µM [inhibitor, partial curve, poor fit]",
COc1ccc([C@H]2C[C@H](n3cc(-c4ccc(F)cc4)nn3)[C@@H](O)CN2CC2CCCCC2)cc1,"inconclusive: 14.1 µM [inhibitor, single point]",
COc1ccc(-c2csc3ncnc(N4CCN(c5cccc(C)c5C)CC4)c23)cc1,,inactive: 2.43%
Cc1ccc(C2=NN=C(NC(=O)CSc3nncn3C)SC2)cc1,,inactive: 0%
CCCCN1CCc2c([nH]c3ccccc23)C1=O,"inconclusive: 22.4 µM [inhibitor, single point]",
CCOc1ccc(NC(=O)N2CCc3ccccc3C2)cc1,,inactive: 4.15%
Cn1c(=O)c2c(nc(NCCc3ccccc3)n2Cc2ccc(Cl)cc2)n(C)c1=O,"inconclusive: 20 µM [inhibitor, partial curve, poor fit]",
CCCCCC(=O)Nc1cccc(C2=NOC3(C2)C[C@@H](C(N)=O)N(C(=O)c2cc([N+](=O)[O-])cc([N+](=O)[O-])c2C)C3)c1 (stereo partly drawn),"inconclusive: 20 µM [inhibitor, partial curve, poor fit]",
Cc1cc(C)cc(C(O)c2ncc(-c3ccc(Cl)cc3)[nH]2)c1 (stereo not drawn),,inactive: -23.4%
c1ccc2c(c1)[nH]c1c(NCC3CCCO3)ncnc12 (stereo not drawn),"inconclusive: 7.08 µM [inhibitor, partial curve]",
COc1ccccc1C(=O)N1[C@@H](C(C)C)COc2cc(Br)ccc2S1(=O)=O,"inconclusive: 12.6 µM [inhibitor, partial curve]",
COC(=O)C1=C(C)N(Cc2ccccc2)C(=NCc2ccccc2)N[C@H]1c1cccc(C(F)(F)F)c1,"inconclusive: 14.1 µM [inhibitor, single point]",
CCOC(=O)c1cnc2ccc(C)cc2c1Nc1ccc(N(CC)CC)cc1,"inconclusive: 35.5 µM [inhibitor, single point]",
Cc1ccc(N2CCN(C(=O)CNS(=O)(=O)c3ccc(Br)s3)CC2C)cc1 (stereo not drawn),"inconclusive: 35.5 µM [inhibitor, single point]",
CC(C)CC(=O)Nc1ccc(C(=O)CN2C(=O)NC3(CCOc4ccccc43)C2=O)cc1 (stereo not drawn),,inactive: -20.3%
O=C(Nc1ccc2oc(-c3ccccc3)nc2c1)c1ccco1,"inconclusive: 35.5 µM [inhibitor, single point]",
COc1cccc(C2NC(=O)NC(O)(C(F)(F)F)C2C(=O)c2cccnc2)c1OC (stereo not drawn),"inconclusive: 4.47 µM [inhibitor, single point]",
Cc1c(Cl)cccc1NC(=O)CCC(=O)NNC(=O)c1ccccc1Cl,"inconclusive: 35.5 µM [inhibitor, single point]",
O=C(CCN1CCC(c2cccs2)=N1)c1cccs1,"inconclusive: 35.5 µM [inhibitor, single point]",
COc1ccc(N(C(=O)C(C)C)S(=O)(=O)c2ccc3ccccc3c2)cc1,"inconclusive: 14.1 µM [inhibitor, single point]",

Structure (SMILES),Potency,"activity, negative = inhibition"
CCOC(=O)c1cc(-c2ccc(OC)cc2)n(CCC(=O)NC2CCCCC2)c1C,"inconclusive: 3.16 µM [inhibitor, single point]",
COc1ccc2c(CNC3CCCCCC3)c(C(=O)O)n(Cc3ccccc3F)c2c1,"inconclusive: 7.94 µM [inhibitor, partial curve]",
Cn1c(N)c(C(=O)Nc2ccc(-c3ccccc3)cc2)sc1=S,"inconclusive: 15.8 µM [inhibitor, single point]",
Cc1nc(NC(N)=S)sc1C(=O)Nc1ccccc1,,inactive: 2.99%
CC1CN(C(=O)COC(=O)/C=C/c2ccccc2)CC(C)O1 (stereo not drawn),,inactive: -2.76%
COc1ccc(CNC(=S)N2CCN(Cc3ccccc3)CC2)cc1,"inconclusive: 35.5 µM [inhibitor, single point]",
CCOC(=O)C1CCN(C(=O)CN(c2cc(OC)ccc2OC)S(=O)(=O)c2ccccc2)CC1,"inconclusive: 3.55 µM [inhibitor, single point]",
CCOc1ccc(-c2oc3ccc(C)cc3c(=O)c2O)cc1,"inconclusive: 35.5 µM [inhibitor, single point]",
CCN1/C(=C/c2ccc3cc(C)ccc3[n+]2CC)Sc2ccccc21,,inactive: 132%
CCOC(=O)c1c(CN(C)C)n(-c2ccccc2)c2cc(Br)c(OC)cc12,"inconclusive: 35.5 µM [inhibitor, single point]",
Cc1cc(CN(Nc2ccccc2)c2ccccc2)cc(C)n1,,inactive: -3.76%
CC(=O)Nc1ccc(S(=O)(=O)NN=CCCc2ccccc2)cc1,,inactive: 10.1%
Cc1ccc(/C=C/C(=O)N2CCC(Cc3ccccc3)CC2)cc1,,inactive: -27.2%
COc1ccc(CN(C)C(=O)CCc2ccc(S(=O)(=O)N3CCCCCC3)cc2)c(OC)c1,"inconclusive: 10 µM [inhibitor, partial curve]",
Cc1cccc(NC(=O)CN(c2ccc(C(C)C)cc2)S(=O)(=O)c2c(C)nn(C)c2C)n1,"inconclusive: 2.82 µM [inhibitor, partial curve, poor fit]",
CC(=O)NC(Cc1cccc(C)c1)C(=O)NC1CCN(c2ncccc2[N+](=O)[O-])CC1 (stereo not drawn),"inconclusive: 35.5 µM [inhibitor, single point]",
O=C(Nc1ccc2oc(-c3ccc4ccccc4c3)nc2c1)c1ccc(Cl)c(Cl)c1,"inconclusive: 28.2 µM [inhibitor, single point]",
Cc1cc(C)c[n+](C2=C([O-])c3ccccc3C(=O)/C2=N\S(=O)(=O)c2cccs2)c1,"inconclusive: 3.55 µM [inhibitor, partial curve, poor fit]",
COc1ccc2oc(C(=O)N(Cc3ccco3)Cc3cccs3)c(C)c2c1,"inconclusive: 35.5 µM [inhibitor, single point]",
O=c1[nH]c2ccc(NCc3ccc(-c4ccccc4)o3)cc2[nH]1,,inactive: 0.714%
COc1ccc(CN=C2NC(=O)CC(C(=O)Nc3cc(C)cc(C)c3)S2)cc1 (stereo not drawn),"inconclusive: 5.62 µM [inhibitor, single point]",
COc1cc(Cl)ccc1OCc1cc(C(=O)N2CCN(C)CC2)no1,,inactive: 10.4%
O=C(N/N=C/c1ccccc1O)C1CCCC1,"inconclusive: 15.8 µM [inhibitor, single point]",

Structure (SMILES),Potency,"activity, negative = inhibition"
CC(C)CNC(=S)N1CCN(c2nc(-c3ccc(Cl)cc3)cs2)CC1,"inconclusive: 25.1 µM [inhibitor, single point]",
CC(=O)n1cc(Nc2ccc([N+](=O)[O-])cc2)c2ccccc21,,inactive: -1.16%
O=C(CN1C(=O)NC2(CCCCCC2)C1=O)Nc1ccc(OC(F)(F)F)cc1,,inactive: -7.51%
N#Cc1ccc(Oc2ccc(S(=O)(=O)N3CCOCC3)cn2)cc1,,inactive: -1.25%
Cc1ccc(-c2nc(C=Nc3ccccc3)c(O)o2)cc1,"inconclusive: 11.2 µM [inhibitor, single point]",
CCOC(=O)/C=C/C(=O)OCC(=O)NCc1ccccc1,,inactive: -2.74%
COc1ccc(CC2(CO)CCN(Cc3cnc(-c4ccccc4C)nc3)CC2)cc1,"inconclusive: 25.1 µM [inhibitor, single point]",
Cc1ccc(NC(=O)c2ccc(Cl)cc2Cl)c(C(=O)c2ccccc2)c1,"inconclusive: 22.4 µM [inhibitor, single point]",
CCc1ccc(OCC2c3cc(OC)c(OC)cc3CCN2C(=S)NCCOC)cc1 (stereo not drawn),"inconclusive: 35.5 µM [inhibitor, single point]",
COCCCNC(=O)C1CCC(Cn2c(=O)c3sccc3n(C)c2=O)CC1 (stereo not drawn),,inactive: 20.6%
OC(c1ccc2c(c1)OCO2)c1ncc(-c2cccc(C(F)(F)F)c2)[nH]1 (stereo not drawn),,inactive: -2.29%
Cc1nc2ncccn2c1-c1csc(Nc2ccccc2)n1,"inconclusive: 7.08 µM [inhibitor, partial curve, poor fit]",
Cc1noc(C)c1S(=O)(=O)Nc1ccc2c(c1)C(=O)N([C@H](C)CO)C[C@H](C)[C@H](CN(C)C(=O)NC(C)C)OCCCC[C@@H](C)O2,,inactive: 13.5%
Cc1cccc(C(=O)NCCc2nc3ccccc3n2Cc2ccc(Cl)cc2)c1,"inconclusive: 20 µM [inhibitor, partial curve, poor fit]",
CCc1noc(C)c1C(=O)N(C)CC(=O)Nc1ccc(OC)cc1,,inactive: 8.19%
CCOC(=O)c1cccc(NS(=O)(=O)c2ccc3[nH]c4c(c3c2)CCCC4)c1,active: 14.1 µM,
C=CCOC(=O)C1=C(C)NC(SCC(=O)Nc2nccs2)=C(C#N)C1c1cccs1 (stereo not drawn),"inconclusive: 25.1 µM [inhibitor, single point]",
O=C1CCC(C(=O)OCc2nnc(-c3ccccc3)o2)=NN1,,inactive: 17.9%
Cn1cc(CN2CCC(C(=O)Nc3cccc(-c4cccc(F)c4)c3)CC2)cn1,active: 11.2 µM,
COC(=O)[C@]1(Cc2ccccc2)N[C@H](CN(C)C(C)=O)[C@@H]2C(=O)N(C)C(=O)[C@@H]21,"inconclusive: 5.62 µM [inhibitor, single point]",
CCOC(=O)c1ccc2nc(C)cc(Nc3ccc(OC(C)C)cc3)c2c1,"inconclusive: 17.8 µM [inhibitor, single point]",
Cc1ccc(-n2cnc3cc(C(=O)NCc4ccc(F)cc4)ccc32)c(C)c1,"inconclusive: 35.5 µM [inhibitor, single point]",
